Experimental data as given in the supplement of paper PMC7826260.
This is one part of the list. Cleavage of a single-stranded DNA pool by Rep nickase domains was read by sequencing for 1 h at 37 °C with 3 µM enzyme; only the middle of the 90-letter strands is printed. Uncut reads are compared with the no-enzyme pool on a log2 scale; the lower, the more was cut; hits are not called. Counts are relative to all reads; uncut strands gain when others are lost, and binding without cutting may add a little.

Legend:
Assay in all cases: uncleaved DNA left, log2 of reads against the no-enzyme library (log2 ratio); higher = less cleavage (more negative = more Rep cleavage of the k-mer); sequences stand for … in CTCGTCCG…ACCGGAGA
[1] = tested on: T1, Rep nickase domain of Muscovy duck circovirus
T1 sequence (protein, residues 1-111, tag omitted): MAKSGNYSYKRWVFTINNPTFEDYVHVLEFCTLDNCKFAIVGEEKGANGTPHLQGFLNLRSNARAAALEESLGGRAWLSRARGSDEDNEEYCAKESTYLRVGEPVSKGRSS
Experimental: (§1)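 A pool of 90-nt single-stranded DNAs with seven random bases just before the constant AC of the nick site (name = the seven bases) was cut by 3 µM recombinant His6-SUMO-tagged Rep nickase domain (300 nM DNA, 50 mM HEPES pH 8.0, 50 mM NaCl, 1 mM MnCl2, 1 h, 37 °C, three replicates). Uncut DNA was amplified and sequenced.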

[2] = tested on: T2, Rep nickase domain of banana bunchy top virus
T2 sequence (protein, residues 1-94, tag omitted): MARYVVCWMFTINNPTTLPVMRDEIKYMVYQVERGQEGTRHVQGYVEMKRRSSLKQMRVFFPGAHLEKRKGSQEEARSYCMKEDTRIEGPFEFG
Experimental: as §1

[3] = tested on: T3, Rep nickase domain of cabbage leaf curl virus
T3 sequence (protein, residues 1-116, tag omitted): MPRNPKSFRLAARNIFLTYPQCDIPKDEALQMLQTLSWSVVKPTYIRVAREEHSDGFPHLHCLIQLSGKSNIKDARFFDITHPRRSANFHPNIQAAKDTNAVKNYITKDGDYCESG
Experimental: as §1

[4] = tested on: T4, Rep nickase domain of chickpea chlorotic dwarf virus
T4 sequence (protein, residues 1-124, tag omitted): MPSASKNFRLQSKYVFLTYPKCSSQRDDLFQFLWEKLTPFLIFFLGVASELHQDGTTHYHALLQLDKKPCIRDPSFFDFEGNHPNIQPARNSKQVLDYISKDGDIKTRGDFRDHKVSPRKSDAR
Experimental: as §1

[5] = tested on: T5, Rep nickase domain of faba bean necrotic yellows virus
T5 sequence (protein, residues 1-98, tag omitted): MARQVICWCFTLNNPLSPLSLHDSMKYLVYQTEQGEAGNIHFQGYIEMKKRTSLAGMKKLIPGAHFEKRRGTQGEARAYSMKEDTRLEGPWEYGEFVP
Experimental: as §1

[6] = tested on: T6, Rep nickase domain of maize striate mosaic virus
T6 sequence (protein, residues 1-117, tag omitted): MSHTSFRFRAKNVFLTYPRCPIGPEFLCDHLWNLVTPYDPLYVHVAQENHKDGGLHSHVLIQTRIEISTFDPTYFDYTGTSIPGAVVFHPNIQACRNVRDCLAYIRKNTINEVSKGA
Experimental: as §1

[7] = tested on: T7, Rep nickase domain of porcine circovirus 2
T7 sequence (protein, residues 2-116, tag omitted): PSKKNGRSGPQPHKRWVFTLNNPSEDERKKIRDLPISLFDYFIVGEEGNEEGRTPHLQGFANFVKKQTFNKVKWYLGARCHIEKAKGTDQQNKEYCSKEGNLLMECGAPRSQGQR
Experimental: as §1

[8] = tested on: T8, Rep nickase domain of tomato golden mosaic virus
T8 sequence (protein, residues 1-124, tag omitted): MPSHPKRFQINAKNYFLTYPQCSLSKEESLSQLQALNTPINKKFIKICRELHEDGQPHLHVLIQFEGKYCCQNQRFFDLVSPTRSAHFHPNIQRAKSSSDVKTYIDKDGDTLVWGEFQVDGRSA
Experimental: as §1

[9] = tested on: T9, Rep nickase domain of tomato yellow leaf curl virus
T9 sequence (protein, residues 1-136, tag omitted): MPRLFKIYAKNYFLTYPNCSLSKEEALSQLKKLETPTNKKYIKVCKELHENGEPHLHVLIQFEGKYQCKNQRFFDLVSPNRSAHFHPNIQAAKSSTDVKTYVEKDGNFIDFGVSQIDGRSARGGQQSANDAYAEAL
Experimental: as §1

[10] = tested on: T10, Rep nickase domain of wheat dwarf virus
T10 sequence (protein, residues 1-137, tag omitted): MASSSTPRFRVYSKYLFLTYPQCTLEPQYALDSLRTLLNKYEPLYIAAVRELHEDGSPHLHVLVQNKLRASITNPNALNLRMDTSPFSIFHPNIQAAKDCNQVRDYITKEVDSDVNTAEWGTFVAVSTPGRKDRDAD
Experimental: as §1

Row | Sequence | uncleaved DNA left (log2) [1] | uncleaved DNA left (log2) [2] | uncleaved DNA left (log2) [3] | uncleaved DNA left (log2) [4] | uncleaved DNA left (log2) [5] | uncleaved DNA left (log2) [6] | uncleaved DNA left (log2) [7] | uncleaved DNA left (log2) [8] | uncleaved DNA left (log2) [9] | uncleaved DNA left (log2) [10]
1 | ATATGTT | -3.65 | -1.02 | -3.31 | -2.99 | -0.196 | -2.49 | -3.45 | -2.15 | -0.0895 | -2.17
2 | AAATCAC | 0.156 | 0.106 | -1.65 | -1.55 | 0.0626 | -0.723 | -0.00863 | -0.0177 | 0.12 | -0.224
3 | ACGGAGT | 0.0805 | 0.14 | -0.249 | -0.149 | -0.0333 | -0.558 | 0.00261 | 0.0239 | -0.0842 | -0.104
4 | ATATAAA | -0.0415 | -0.155 | -0.148 | -0.195 | -0.048 | -0.696 | 0.0027 | -0.0137 | -0.117 | 0.0884
5 | TAGGTTT | 0.0158 | -0.0572 | -0.414 | -1.76 | 0.0339 | 1.47 | -3.21 | 0.129 | 0.161 | -0.105
6 | CCCACGT | 0.0922 | -0.102 | 0.186 | -0.203 | -0.00451 | -0.237 | -0.086 | -0.106 | -0.0796 | -0.156
7 | TTATAAC | 0.0357 | -0.018 | -0.326 | -1.73 | 0.0144 | -0.343 | 0.0553 | 0.0527 | -0.055 | -0.0399
8 | AACATTC | 0.0022 | -0.0384 | -0.241 | -0.235 | 0.0341 | -1.02 | 0.146 | -0.0119 | 0.0671 | 0.00763
9 | GTTCGGT | -0.0253 | 0.0765 | 0.306 | 0.853 | -0.00635 | 1.51 | 0.0747 | 0.0759 | 0.0428 | -0.000254
10 | GCTTTCA | -0.00026 | 0.0607 | 0.232 | 0.162 | 0.00809 | 0.721 | 0.109 | 0.0865 | 0.0837 | 0.122
11 | GCATCTT | -2.27 | 0.176 | 0.0184 | -1.46 | 0.142 | 0.0579 | -2.36 | 0.229 | 0.166 | 0.186
12 | TTTGAAA | -0.0013 | -0.0338 | 0.268 | 0.273 | -0.00726 | 0.115 | 0.0095 | -0.00198 | 0.0557 | -0.0282
13 | AGCACCG | -0.0143 | -0.0162 | -0.402 | -0.43 | -0.0289 | -0.675 | 0.0406 | -0.0441 | -0.0662 | -0.08
14 | ATTCCAC | 0.0753 | 0.0742 | -0.0376 | -0.305 | 0.131 | -0.6 | -0.837 | -0.0781 | 0.0646 | 0.072
15 | CTGCCTC | -0.195 | -0.167 | 0.0777 | 0.307 | -0.0291 | 0.781 | -0.102 | -0.106 | -0.0945 | -0.0148
16 | CCACGCA | -0.138 | -0.122 | -0.404 | -0.576 | -0.0302 | -0.938 | -0.0706 | -0.128 | -0.129 | -0.143
17 | GACGTAA | -0.117 | -0.0983 | 0.15 | 0.216 | -0.0581 | 0.642 | 0.147 | -0.0787 | -0.0407 | -0.0173
18 | ATGGAGC | 0.177 | 0.116 | -0.0352 | 0.428 | 0.113 | -0.0661 | 0.267 | 0.186 | -0.0183 | 0.0672
19 | ATATATC | 0.0856 | 0.0498 | -0.0181 | 0.0159 | 0.0583 | -0.672 | 0.0114 | 0.025 | 0.043 | 0.0086
20 | CGTTCGA | 0.00556 | -0.0888 | -0.442 | -0.601 | -0.0403 | -0.786 | 0.101 | 0.0143 | -0.0263 | -0.0915
21 | CGGCTCC | -0.0935 | -0.102 | 0.0189 | 0.151 | -0.0941 | 0.712 | -0.102 | -0.124 | -0.0948 | -0.115
22 | GTCAATA | 0.0354 | 0.0502 | 0.341 | 0.785 | -0.0189 | 1.66 | 0.172 | 0.12 | 0.0384 | 0.162
23 | CACGAGC | -0.0533 | -0.00831 | 0.107 | 0.582 | -0.182 | -0.128 | -0.0381 | 0.0403 | -0.0222 | -0.026
24 | GATGGCC | -0.115 | -0.0167 | 0.0402 | 0.65 | 0.0141 | 0.67 | 0.0168 | -0.0387 | -0.0458 | -0.00753
25 | GATGCTG | -0.164 | -0.15 | 0.0972 | 1.2 | -0.0258 | 1.26 | 0.106 | -0.0516 | -0.175 | -0.0577
26 | TTCGATT | 0.0269 | -0.0584 | 0.0498 | -1.63 | 0.148 | -0.329 | -0.598 | 0.176 | 0.0358 | 0.00552
27 | GAGAGAG | 0.0166 | 0.0477 | 0.048 | 0.579 | 0.0644 | -0.287 | 0.141 | 0.0438 | 0.0939 | 0.11
28 | CGTGGCT | -0.0247 | 0.0677 | -0.238 | -0.257 | -0.00596 | -0.446 | 0.0801 | 0.0353 | -0.0181 | -0.0129
29 | CTCGGTT | 0.0205 | -0.0345 | 0.2 | -0.67 | 0.0934 | 0.395 | -0.188 | -0.0323 | -0.126 | -0.0407
30 | TGCGTGC | 0.131 | 0.0949 | 0.0655 | 0.249 | -0.0571 | -0.00255 | 0.169 | 0.132 | 0.0403 | -0.0774
